The source of these data is the antibiotic and cytotoxicity screens of Wong et al. (2023).

One assay relates to HSkMC. Kind of assay: cytotoxicity call (relative viability < 0.9). Particulars: 10 µM.
Another assay concerns HepG2. Kind of assay: cytotoxicity call (relative viability < 0.9). Conditions: 10 µM.
For the next assay, the system named is S. aureus RN4220. Kind of assay: growth inhibition call (relative growth <= 0.2). Particulars: 50 µM.

This is one part of the list.

For `C[C@H]1CN([C@@H](C)CO)C(=O)c2cc(NC(=O)NC3CCCCC3)ccc2O[C@H]1CN(C)S(C)(=O)=O`, the cytotoxicity call with HSkMC and in the assay on HepG2 was “inactive” each time. Besides, the growth inhibition call with S. aureus RN4220 was “inactive”.

For the compound `C[C@H]1CN([C@@H](C)CO)C(=O)CCCn2cc(nn2)CO[C@@H]1CN(C)C(=O)Nc1ccnc(N2CCOCC2)c1`, the cytotoxicity call with HSkMC and in the assay with HepG2 was “inactive” throughout. Moreover, in the assay with S. aureus RN4220, the growth inhibition call is “inactive”.

Consider `C[C@H](CO)N1C[C@H](C)[C@@H](CN(C)S(=O)(=O)c2ccc(Cl)cc2)Oc2c(NC(=O)C3CC3)cccc2C1=O`, for which the cytotoxicity call in the assay on HSkMC and in the assay on HepG2 was “inactive” throughout. In the assay with S. aureus RN4220, the growth inhibition call was “inactive”.

In the case of `Cc1noc(C)c1NC(=O)Nc1ccc2c(c1)CC(=O)N([C@H](C)CO)C[C@H](C)[C@H](CN(C)Cc1ccc(C(=O)Nc3ccccc3N)cc1)O2`, the cytotoxicity call in the assay on HSkMC and in the assay on HepG2 was “inactive” in each case. For the same compound, the growth inhibition call in the assay on S. aureus RN4220 was “inactive”.

`C[C@H](CO)N1C[C@H](C)[C@@H](CN(C)S(C)(=O)=O)Oc2ccc(NC(=O)CCC(F)(F)F)cc2C1=O`: the cytotoxicity call with HSkMC and with HepG2 was “inactive” in each case. In the assay with S. aureus RN4220, the growth inhibition call is “inactive”.

Turning to `C[C@H](CO)N1C[C@H](C)[C@H](CN(C)C(=O)Cc2ccccn2)Oc2ncc(C#CC3CCCCC3)cc2C1=O`, the cytotoxicity call in the assay with HSkMC and in the assay with HepG2 was “inactive” throughout. In addition, the growth inhibition call in the assay with S. aureus RN4220 is “inactive”.

Consider `O=C(N1CCOCC1)C(F)(F)F`, for which the cytotoxicity call in the assay on HSkMC and with HepG2 was “inactive” each time. For the same compound, in the assay on S. aureus RN4220, the growth inhibition call is “inactive”.

As to `COc1cccc(S(=O)(=O)N(C)C[C@H]2Oc3ncc(C#CC(C)C)cc3C(=O)N([C@H](C)CO)C[C@H]2C)c1`, the cytotoxicity call in the assay on HSkMC and in the assay with HepG2 was “inactive” throughout. For the same compound, in the assay with S. aureus RN4220, the growth inhibition call is “inactive”.

`NCc1ccccc1Cn1cccn1`: the cytotoxicity call in the assay with HSkMC and in the assay with HepG2 was “inactive” in each case. Further, the growth inhibition call with S. aureus RN4220 was “inactive”.

As for `Cc1ccc(S(=O)(=O)N(C)C[C@H]2OCCCC[C@H](C)Oc3ccc(NS(=O)(=O)c4ccc(F)cc4)cc3C(=O)N([C@H](C)CO)C[C@@H]2C)cc1`, the cytotoxicity call with HSkMC and in the assay with HepG2 was “inactive” throughout. For the same compound, in the assay with S. aureus RN4220, the growth inhibition call is “inactive”.

For `C[C@H]1CN([C@@H](C)CO)C(=O)Cc2cc(NC(=O)CCCCCC(=O)Nc3ccccc3N)ccc2O[C@H]1CN(C)S(C)(=O)=O`, the cytotoxicity call in the assay on HSkMC and in the assay with HepG2 was “inactive” in each case. In addition, in the assay on S. aureus RN4220, the growth inhibition call is “inactive”.

In the case of `CCCCC(=O)OC1(C(=O)CO)C(C)CC2C3CCC4=CC(=O)C=CC4(C)C3(F)C(O)CC21C` (stereo unspecified), the cytotoxicity call in the assay on HSkMC and in the assay with HepG2 was “inactive” each time. The growth inhibition call with S. aureus RN4220 is “inactive”.

As to `COc1ccc(NC(=O)Nc2ccc3c(c2)C(=O)N([C@@H](C)CO)C[C@@H](C)[C@@H](CN(C)Cc2ccc(C(F)(F)F)cc2)OCCCC[C@H](C)O3)cc1`, in the assay on HSkMC, the cytotoxicity call is “inactive”. Besides, the cytotoxicity call with HepG2 is “active”. The growth inhibition call in the assay with S. aureus RN4220 is “inactive”.

Turning to `C[C@@H]1CCCCO[C@H](CN(C)S(=O)(=O)c2cccs2)[C@@H](C)CN([C@@H](C)CO)C(=O)c2cc(NC(=O)Nc3ccc4c(c3)OCO4)ccc2O1`, the cytotoxicity call with HSkMC and with HepG2 was “inactive” each time. The growth inhibition call in the assay on S. aureus RN4220 is “inactive”.

Consider `C#Cc1cnc(OC)cn1`, for which the cytotoxicity call with HSkMC and with HepG2 was “inactive” each time. Also, in the assay with S. aureus RN4220, the growth inhibition call is “inactive”.

On to `COc1ccc(S(=O)(=O)N(C)C[C@H]2OCCCC[C@@H](C)Oc3ccc(NC(=O)NC4CCCCC4)cc3C(=O)N([C@@H](C)CO)C[C@@H]2C)cc1`, for which the cytotoxicity call in the assay with HSkMC was “inactive”. Besides, the cytotoxicity call with HepG2 is “active”. The growth inhibition call in the assay on S. aureus RN4220 is “inactive”.

For `C[C@@H]1CN([C@@H](C)CO)C(=O)c2cc(NC(=O)Nc3ccc(C(F)(F)F)cc3)ccc2O[C@@H](C)CCCCO[C@H]1CN(C)C(=O)C1CCCCC1`, the cytotoxicity call in the assay on HSkMC and with HepG2 was “inactive” in each case. In addition, the growth inhibition call in the assay with S. aureus RN4220 is “inactive”.

Take `CC(C)NC(=O)Nc1ccc2c(c1)C(=O)N([C@@H](C)CO)C[C@@H](C)[C@@H](CN(C)S(=O)(=O)c1ccc(Cl)cc1)O2`: the cytotoxicity call in the assay on HSkMC and in the assay on HepG2 was “inactive” each time. The growth inhibition call in the assay with S. aureus RN4220 is “inactive”.

On to `C[C@H]1CN([C@@H](C)CO)C(=O)Cc2cc(NC(=O)C3CCCCC3)ccc2O[C@H]1CN(C)Cc1ccc(-c2ccccc2)cc1`, for which the cytotoxicity call with HSkMC and in the assay on HepG2 was “inactive” each time. In the assay with S. aureus RN4220, the growth inhibition call was “inactive”.

As to `COc1ccc(NC(=O)N(C)C[C@H]2OCCCC[C@H](C)Oc3ccc(NC(=O)c4ccncc4)cc3C(=O)N([C@H](C)CO)C[C@@H]2C)cc1`, the cytotoxicity call with HSkMC and with HepG2 was “inactive” in each case. Further, the growth inhibition call in the assay with S. aureus RN4220 is “inactive”.

As for `C[C@H]1CN([C@@H](C)CO)S(=O)(=O)c2ccc(C#CC3CC3)cc2O[C@@H]1CN(C)C(=O)c1cccc(F)c1`, the cytotoxicity call with HSkMC and with HepG2 was “inactive” in each case. Further, in the assay on S. aureus RN4220, the growth inhibition call is “inactive”.

Consider `C[C@H](CO)N1C[C@H](C)[C@@H](CN(C)C(=O)C2CCCCC2)OCCCC[C@H](C)Oc2ccc(NS(=O)(=O)c3ccc(Cl)cc3)cc2C1=O`, for which the cytotoxicity call in the assay on HSkMC and with HepG2 was “inactive” in each case. For the same compound, the growth inhibition call with S. aureus RN4220 is “inactive”.

In the case of `C[C@H]1CN([C@@H](C)CO)C(=O)Cc2cc(NC(=O)Cc3ccccc3)ccc2O[C@@H]1CN(C)S(=O)(=O)c1ccccc1`, the cytotoxicity call in the assay on HSkMC (human skeletal muscle cells) and in the assay with HepG2 was “inactive” in each case. Further, in the assay on S. aureus RN4220, the growth inhibition call was “inactive”.

`O=C(C[C@@H]1CC=CCCC(=O)OC[C@@H](Cc2c[nH]c3ccccc23)NC1=O)N[C@@H](CO)Cc1ccccc1`: the cytotoxicity call in the assay with HSkMC and in the assay on HepG2 was “inactive” throughout. For the same compound, the growth inhibition call with S. aureus RN4220 is “inactive”.

As to `C[C@@H]1CN([C@@H](C)CO)C(=O)c2cc(NS(=O)(=O)c3ccc(F)cc3)ccc2O[C@@H](C)CCCCO[C@@H]1CN(C)CC1CCCCC1`, the cytotoxicity call with HSkMC and in the assay with HepG2 was “inactive” throughout. For the same compound, the growth inhibition call in the assay on S. aureus RN4220 was “inactive”.

As for `Cc1ccc(S(=O)(=O)N(C)C[C@@H]2Oc3ccc(NS(=O)(=O)c4cccs4)cc3CC(=O)N([C@@H](C)CO)C[C@H]2C)cc1`, the cytotoxicity call in the assay with HSkMC and in the assay with HepG2 was “inactive” each time. Further, the growth inhibition call in the assay on S. aureus RN4220 is “inactive”.

Regarding `COc1ccc(NC(=O)N(C)C[C@@H]2OCCCC[C@H](C)Oc3ccc(NC(=O)Nc4ccc(C(F)(F)F)cc4)cc3C(=O)N([C@@H](C)CO)C[C@H]2C)cc1`, the cytotoxicity call with HSkMC and with HepG2 was “inactive” in each case. Further, the growth inhibition call with S. aureus RN4220 is “inactive”.
